The campaign covered roughly 39,000 compounds. About 220 (0.56%) showed activity. The list shows a part of the results.
Test system: Escherichia coli K-12 BW25113
Assay: relative growth (OD600 normalised to plate interquartile mean) (fraction); higher = less growth inhibition, active = 0.2 or less
Conditions: 50 µM; LB; incubation time: overnight (16-24 h)
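Also: static incubation at 37 °C against the wild-type strain, values averaged over two biological replicates.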

For `O=C1OCCC=C[C@H]2O[C@@]34C=CCN(c5ccc6ccccc6c5)C(=O)[C@H]3N(CCCCCCO)C(=O)[C@@H]4[C@@H]12`, which relative growth is on record?
The relative growth was inactive: 1.01.

With `C[C@@H]1CN([C@@H](C)CO)C(=O)CCCn2cc(nn2)CO[C@H]1CN(C)C(=O)Nc1ccc(N2CCCCC2)cc1` as the compound, how does the relative growth read?
Its relative growth is inactive: 0.986.

With `C[C@@H]1CCCCO[C@H](CN(C)Cc2ccc3c(c2)OCO3)[C@H](C)CN([C@@H](C)CO)C(=O)c2cc(NC(=O)CCC(F)(F)F)ccc2O1` as the compound, how does the relative growth read?
The relative growth was inactive: 0.995.

Which relative growth does the source give for `C[C@H]1CN([C@@H](C)CO)C(=O)c2cccc(NC(=O)C3CC3)c2O[C@H]1CN(C)S(=O)(=O)c1cccs1` here?
Its relative growth is inactive: 0.994.

`C[C@H]1CN([C@@H](C)CO)C(=O)c2cc(C#CCN(C)C)cnc2O[C@@H]1CN(C)S(=O)(=O)c1ccccc1` was tested. Which relative growth did it give?
Its relative growth is inactive: 1.05.

Which relative growth does the source give for `C(=N\c1nc2ccccc2[nH]1)/N(c1ccccc1)c1ccccc1` here?
The relative growth was inactive: 0.997.

With `O=C(CN1CCOCC1)N[C@@H]1CC[C@@H](CCn2cc(C3CCCC3)nn2)O[C@H]1CO` as the compound, how does the relative growth read?
Its relative growth is inactive: 0.983.

For `COc1cccc(NC(=O)N2C[C@@H](O)COC[C@@H]3O[C@@H](CC(=O)NC4Cc5ccccc5C4)CC[C@H]32)c1`, which relative growth is on record?
Its relative growth is inactive: 0.969.

With `C[C@@H]1CCCCO[C@H](CN(C)S(=O)(=O)c2cn(C)cn2)[C@@H](C)CN([C@H](C)CO)C(=O)c2cc(NC(=O)CCCN(C)C)ccc2O1` as the compound, how does the relative growth read?
Its relative growth is inactive: 0.981.

With `Cc1ccc(S(=O)(=O)N(C)C[C@@H]2OCCCC[C@@H](C)Oc3ccc(NC(=O)Nc4cccc5ccccc45)cc3C(=O)N([C@H](C)CO)C[C@H]2C)cc1` as the compound, how does the relative growth read?
The relative growth was inactive: 1.03.

Which relative growth does the source give for `C[C@@H]1CN([C@@H](C)CO)C(=O)c2cc(NC(=O)Cc3ccccc3)ccc2O[C@@H](C)CCCCO[C@@H]1CN(C)C(=O)NC1CCCCC1` here?
Its relative growth is inactive: 0.984.

With `COc1ccc(NC(=O)N(C)C[C@@H]2Oc3ccc(NC(=O)C4CC4)cc3C(=O)N([C@H](C)CO)C[C@@H]2C)cc1` as the compound, how does the relative growth read?
The relative growth was inactive: 1.01.

How did the relative growth turn out when `CN(C)C(=O)C[C@@H]1CC[C@@H](NC(=O)C2CCOCC2)[C@H](CO)O1` was run?
The relative growth was inactive: 1.

Which relative growth does the source give for `COc1ccc(S(=O)(=O)Nc2cccc3c2O[C@@H](CN(C)S(=O)(=O)c2cccs2)[C@@H](C)CN([C@@H](C)CO)C3=O)cc1` here?
Its relative growth is inactive: 1.01.

Which relative growth does the source give for `C[C@@H]1CN([C@@H](C)CO)C(=O)Cc2cc(NC(=O)Cc3ccccc3)ccc2O[C@@H]1CN(C)Cc1ccc(Cl)c(Cl)c1` here?
The relative growth was inactive: 0.988.

With `CCS(=O)(=O)Nc1ccc2c(c1)C(=O)N(C)C[C@H](OC)[C@H](C)CN(Cc1nccs1)[C@H](C)CO2` as the compound, how does the relative growth read?
The relative growth was inactive: 0.971.

Source: the supplement of paper PMC9446081
